Results from PubChem BioAssay AID488969 (Vanderbilt High Throughput Screening Facility, 2010).
The full ranking holds about 110,000 compounds; the median of “z-score” is about -0.1, and the highest 2% start at about 2. This is one part of the list. Active and inactive are the calls of the source.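 The calls were made as follows: active = z-score in the third read window above 3 or below -3; inactive = the rest.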

biological target: Metabotropic glutamate receptor 8 (Rattus norvegicus) (UniProt P70579); assay: rat mGluR8 modulators via GIRK flux, primary screen, cell-based, thallium flux, HTS (AID 488969); conditions: HEK293 rat mGluR8, GIRK (G protein-gated inwardly rectifying potassium channel) thallium flux, FluoZin2; at 10 µM; stronger effect = higher value; submaximal glutamate (EC20) added with thallium
UniProt P70579, sequence (P70579 whole entry, looked up): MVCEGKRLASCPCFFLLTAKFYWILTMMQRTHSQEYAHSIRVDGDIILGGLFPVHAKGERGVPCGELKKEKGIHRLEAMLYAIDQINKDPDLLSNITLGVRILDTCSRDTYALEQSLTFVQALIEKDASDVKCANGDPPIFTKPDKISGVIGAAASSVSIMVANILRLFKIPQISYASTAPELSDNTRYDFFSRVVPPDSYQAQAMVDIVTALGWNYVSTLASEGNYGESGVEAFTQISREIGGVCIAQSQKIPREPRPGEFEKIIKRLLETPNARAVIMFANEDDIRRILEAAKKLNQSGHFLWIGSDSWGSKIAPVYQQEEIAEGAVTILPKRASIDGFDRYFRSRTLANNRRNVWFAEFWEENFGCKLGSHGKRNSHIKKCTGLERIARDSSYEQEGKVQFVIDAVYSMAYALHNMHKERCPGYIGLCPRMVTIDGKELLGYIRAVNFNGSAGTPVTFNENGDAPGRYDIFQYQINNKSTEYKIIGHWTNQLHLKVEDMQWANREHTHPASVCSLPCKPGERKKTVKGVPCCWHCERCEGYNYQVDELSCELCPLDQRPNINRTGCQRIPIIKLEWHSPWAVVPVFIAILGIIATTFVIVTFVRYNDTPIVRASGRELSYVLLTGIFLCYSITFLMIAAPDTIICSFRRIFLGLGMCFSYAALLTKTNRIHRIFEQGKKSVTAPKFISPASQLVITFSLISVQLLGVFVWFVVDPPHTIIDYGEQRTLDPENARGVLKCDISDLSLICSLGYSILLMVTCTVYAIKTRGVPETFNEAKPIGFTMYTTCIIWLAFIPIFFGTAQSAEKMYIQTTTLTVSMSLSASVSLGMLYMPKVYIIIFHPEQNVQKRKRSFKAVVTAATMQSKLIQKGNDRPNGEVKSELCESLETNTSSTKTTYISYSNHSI

Compound	z-score
CCOC(=O)N1CCN(C(=O)C2CCN(C(=O)c3cc(OC)cc(OC)c3)CC2)CC1	-0.0988
S=C(NCCc1ccccc1)NCc1ccccc1Cl	0.165
O=C(CSc1nnc(-c2ccco2)n1-c1ccccc1)NCCc1ccccc1	-0.293
CC(Oc1ccc(Cl)cc1Cl)c1nc(-c2ccc(NC(=O)c3cccnc3)cc2)no1 (stereo not given)	0.0647
COc1cccc(CN2CC(O)=C(c3nc(-c4ccc(Cl)cc4)cs3)C2=N)c1	-0.0854
O=C(CN1C(=O)COc2ccccc21)N(Cc1cccnc1)Cc1ccccc1F	0.362
O=C(Nc1ccc(N2CCCCC2)cc1)c1cncc(Br)c1	0.104
COc1ccc(-c2noc(-c3cccc(OC)c3OC)n2)cc1OC	0.387
CCOC(=O)c1cc(CC)sc1NC(=O)C1CC1	-1.22
Cc1ccc(-c2cc(C(=O)N3CCN(C(=O)c4ccco4)CC3)no2)cc1	-0.304
CCC1CCCCN1C(=O)Cn1c(=O)n(CCC(=O)NCc2ccco2)c(=O)c2sccc21 (stereo not given)	-0.0213
O=C(O)c1cccc(NC(=O)C2C3C=CC(C3)C2C(=O)OCC(F)(F)C(F)F)c1 (stereo not given)	-0.359
CCCSC1=N/C(=C\c2ccsc2)C(=O)S1	0.449
Cc1cccc(C)c1NC(=O)/C(=C/c1ccco1)c1ccccc1	-0.268
NC(=O)c1ccsc1NC(=O)C1CCCN1S(=O)(=O)c1ccc(Cl)cc1 (stereo not given)	0.494
CC1/C(=N/O)C(CN(C)C)C2CC1C2(C)C (stereo not given)	-0.153
CCN(CC)c1ccc(/C=C2\NC(=O)NC2=O)cc1	-0.171
COc1ccc(C(=O)NC2CCN(CC(=O)Nc3cccc(C)c3)CC2)cc1OC	-0.223
O=C(NNC(=O)c1ccccc1[N+](=O)[O-])c1cnccn1	0.111
COC(=O)c1c(NC(=O)CSc2nnnn2-c2ccccc2)sc2c1CCC(C)C2 (stereo not given)	-0.121
Cn1c(CNc2cccc(Cl)c2)nnc1SCC(=O)OC1CCCCC1	-0.274
S=c1[nH]nc(-c2cc3c(s2)-c2ccccc2CC3)o1	active: 16.3

Compound	z-score
O=C(NN=C1CCN(Cc2ccccc2)CC1)c1cccc(S(=O)(=O)Nc2ccccc2Cl)c1	0.0315
O=C(/C=C/c1ccccc1Cl)NC(=S)Nc1ccccc1C(=O)NC1CCCCC1	-0.0868
N#Cc1cn(-c2ccccc2)nc1-c1cc2ccccc2oc1=O	-0.0371
COC(=O)c1c(CCl)noc1C(=O)NC(C)C	-0.223
O=C(CCCN1C(=O)c2ccccc2C1=O)N1CCCCC1	0.836
Cc1ccc(S(=O)(=O)N2CCN(c3ccc(C(F)(F)F)cc3[N+](=O)[O-])CC2)cc1	-0.0811
Cc1noc(C)c1S(=O)(=O)N1CCC(C(=O)N2CCN(c3ccc(Cl)cc3)CC2)CC1	-0.437
O=C(CSc1nnnn1C1CCCC1)Nc1ccc(F)cc1	0.179
O=C(CCCCCn1c(=S)[nH]c2ccccc2c1=O)NCc1ccc2c(c1)OCO2	0.476
O=C(CN1C(=O)c2ccccc2C1=O)NCC1COc2ccccc2O1 (stereo not given)	0.443
CCNCCNc1ccc(Cl)cc1[N+](=O)[O-]	-0.222
Cc1ccccc1C(=O)NC1CCN(C(=O)N2CCOCC2)CC1	-1.1
Cc1ccc(C(=O)OCC(=O)Nc2ccc3c(c2)OCO3)o1	0.0228
CCC1CCCCN1CCCNC(=O)C1CCC(=O)N1Cc1ccc(C)cc1 (stereo not given)	0.925
N#Cc1c(-c2cccs2)cc(C2CC2)nc1SCC(N)=O	-0.0249
CC1(C)CC(=O)C=C(NCc2cccnc2)C1	-0.443
O=C(Oc1ccc(C(=S)N2CCOCC2)cc1Br)c1ccccc1F	0.567
O=[N+]([O-])c1ccc(O)c(/C=N/Nc2ccc(Cl)nn2)c1	-0.395
Nc1c(C(=O)Nc2ccccc2F)sc2nc(-c3ccco3)ccc12	-0.167
COCCNC(=O)c1ccccc1NC(=O)c1cc(OC)cc(OC)c1	-0.244
COc1ccc(S(=O)(=O)N2CCOCC2)cc1C(=O)Nc1cc(C)on1	0.32
CC12CCC(C(=O)NC3CCCC3)(CC1=O)C2(C)C (stereo not given)	0.791

Compound	z-score
CCCc1nnc(NC(=O)CCC(=O)N2CCN(c3ccccn3)CC2)s1	-0.269
CCOC(=O)CN1C(=O)S/C(=C/c2cc(C)n(-c3ccccn3)c2C)C1=O	-0.221
COC(=O)c1cc(Br)c(=O)n(-c2ccc(OC)cc2)c1	-0.609
NNC(=O)CN1C(c2ccccc2Br)=Nc2ccc(Br)cc2C1c1ccccc1 (stereo not given)	-0.154
COc1ccc(/C=N/NC(=O)C2c3ccccc3Oc3ccccc32)c(OC)c1	-0.0101
CCOC(=O)c1ccc(Nc2nc(-c3cccnc3)nc3ccccc23)cc1	0.0187
O=C(Nc1cc(C(=O)N2CCCC2)ccc1N1CCCC1)c1ccccc1	-1.7
CCC(Cc1ccccc1)NC(=O)C1CCC(CNc2c(N3CCCC3)c(=O)c2=O)CC1 (stereo not given)	0.312
COc1ccccc1NC(=O)c1sc2ncn(Cc3cccc(C)c3)c(=O)c2c1C	-0.0638
c1ccc(COc2cccc(CNCc3cccs3)c2)cc1	0.54
O=C(CCC(=O)c1cccs1)OCc1nc2ccccc2s1	0.372
CCSc1nnc(-c2cnn(-c3ccccc3)c2-n2cccc2)n1C	-0.0808
COc1ccc(Br)cc1CN(C)CC(=O)Nc1c(Cl)ccc(C)c1Cl	-0.294
COc1ccc(S(=O)(=O)Nc2cccc(SC)c2)cc1OC	-0.0387
CCN(CC)CCOC(=O)CCc1cccc2ccccc12	0.479
Cc1ncoc1C(=O)Nc1cccc(Cl)c1	-0.307
COC(=O)Cn1c(=NC(=O)c2nc3ccccc3s2)sc2cc(S(N)(=O)=O)ccc21	-0.309
Cc1ccsc1C1Nc2ccccc2C(=O)N1O (stereo not given)	-0.218
CCN(CCCNC(=O)C1CCC(=O)N1C(C)C)c1cccc(C)c1 (stereo not given)	-0.386
CCC(=O)Nc1ccc(NC(=S)NC(=O)/C=C/c2ccccc2)cc1	-0.0712
c1ccc(C(c2c[nH]c3ccccc23)c2c[nH]c3ccccc23)nc1	0.105
CCSc1nc2c([nH]c3ccccc32)c(=O)n1C	-0.536

Compound	z-score
CO/N=C/c1ccc(N2CCN(C(=O)c3ccc(Cl)cc3Cl)CC2)c([N+](=O)[O-])c1	-0.166
COC(=O)C1=C(C)NC2=C(C(=O)CC(C)(C)C2)C1c1cn(Cc2ccc(Br)cc2)nc1-c1ccccc1 (stereo not given)	-0.348
Cc1[nH]c2ccccc2c1[C@H]1[C@@H](CC#N)C1(C)C	-0.661
CC(C)CNC(=O)c1cc2nc(C3CC3)cc(C(F)(F)F)n2n1	-0.256
CCOc1ccc(C(=O)Nc2ccccc2N2CCOCC2)cc1	0.836
CCc1nc2c(c(=O)c3ccccc3n2C)c(=O)n1CCc1ccc(OC)cc1	0.183
CC(=O)Nc1ccc2c3c(cccc13)CC2	-0.196
Cc1nc(NC(=O)COc2ccccc2)sc1C(=O)Nc1cccc(Cl)c1	0.144
CCOc1ccccc1NC(=O)c1ccc(S(=O)(=O)N(C)C)cc1	-0.0734
CCOc1ccc2[nH]c(C)c(CN3CCOCC3)c(=O)c2c1	-0.182
C=CCn1c(SCC(=O)Nc2cccc3ccccc23)nnc1-c1cnccn1	-0.29
COc1ccc(C(C)n2c(C)c3c(C)nnc(C)c3c2C)cc1 (stereo not given)	-0.0365
O=C(NCCOc1ccc(F)cc1)c1ccccc1SCc1ccccc1	-0.227
O=C(Cn1nc(C(F)(F)F)c2c1CCCCC2)N1CCOCC1	-0.228
Cc1oc2cc(O)cc(C)c2c(=O)c1-c1cnn(-c2ccccc2)c1	-0.0979
COCc1nnc(NC(=O)c2cc(Cl)ccc2OC)s1	0.193
O=C(Nc1ccccc1Sc1ccccc1)c1ccccc1	-0.698
CC(C)Cc1nnc(NC(=O)c2ccc([N+](=O)[O-])cc2)s1	-0.151
Cc1nnc(SCc2ccccc2F)n1NCc1cccs1	0.288
Cc1ccc2c(c1)sc1ncc(NC(=O)c3ccccc3)c(=O)n12	0.0611
Cc1ccc(S(=O)(=O)N/N=C\c2cn(-c3ccccc3)nc2-c2ccccc2)cc1	0.107
CC1(C)CC(=O)C2=C(C1)N(CC1CCCO1)C(=O)NC2(C(F)(F)F)C(F)(F)F (stereo not given)	1.25

Compound	z-score
O=c1[nH]c2ccc(Br)cc2c(-c2ccccc2)c1CN1CCOCC1	-0.651
O=C(Nc1nc2ccccc2s1)C1=NN(c2ccccc2)C(=O)CC1	0.914
Cc1cccc(C)c1OCc1nnc(NC(=O)CSc2ccc(Cl)cc2)s1	0.123
COc1ccccc1NC(=O)CN(C)S(=O)(=O)c1cc(C)ccc1OC	-0.253
Cc1cc(NS(=O)(=O)c2ccc(NC(=O)c3cc(-c4cccnc4)nc4ccc(Cl)cc34)cc2)no1	-0.139
CC(C)CNC(=O)C(=O)Nc1ccc(N(C)C)cc1	-0.148
CCN(CC)S(=O)(=O)c1cccc(-c2n[nH]c(=S)n2/N=C/c2ccc(C(=O)OC)cc2)c1	active: 3.19
CC(C)NC(=O)C1CCCN(S(C)(=O)=O)C1 (stereo not given)	-0.047
O=C(Nc1ccc(-c2cn3ccsc3n2)cc1)C1CCCC1	0.166
COc1ccc(-c2nnc(N3CCCCC3)c3ccccc23)cc1	-0.595
CC(C)c1ccc(NC(=O)CSc2ncccc2C(=O)Oc2cccc([N+](=O)[O-])c2)cc1	-0.191
Cc1ccc(S(=O)(=O)N[C@@H](C)C(=O)N2CCC(C(=O)N3CCC[C@H]3C(=O)O)CC2)cc1	-0.249
CC(=O)Nc1cccc(S(=O)(=O)N2CCCCCC2)c1	-0.0871
O=C(Nc1cccc2cccnc12)c1ccc(Br)o1	0.412
O=C(CCSc1nnc2ccccn12)Nc1ccc(F)cc1	0.126
c1ccc2[nH]c(NC3=NCCC3)nc2c1	0.96
CC12CN3CC(C)(CN(C1)C3c1ccc3c(c1)OCO3)C2=O (stereo not given)	0.444
CCN(CC)C(=O)c1cnn(-c2ccccc2)c1NC(=O)c1cccs1	-0.27
C=CCC(C)(NCc1ccccc1)c1ccco1 (stereo not given)	-0.0531
Cc1cc(C)c(S(=O)(=O)N2CCN(CCO)CC2)c(C)c1	-0.769
Cc1ccc(NC(=O)/C(=C/c2cccc([N+](=O)[O-])c2)NC(=O)C2CCCCC2)c(C)c1	-0.0436
O=[N+]([O-])c1ccc(N2CCCC2)cc1NC(c1ccccc1)c1ccccc1	-1.03
